{"source": "PubChem BioAssay AID1345082", "about": "(National Center for Advancing Translational Sciences (NCATS), 2018)", "note": "Hit rate of the full screen: of about 94,000 compounds, about 4,000 (4.3%) were called active. The shares of active, inactive and inconclusive entries below differ from those in the screen. Calls come from the whole dose curve; as a rule, active = well fitted inhibition curve with a large enough effect; inconclusive = small, poorly fitted or top-dose-only effect; inactive = no such curve, though single readings can be large or run the other way. Where the call is inconclusive, the potency comes from a doubtful curve fit. % is set by controls: 0 for no effect and ±100 for the full control effect; potency is the fitted concentration of half-maximal effect; tags give direction and shape of the fitted curve.", "data": [{"assay": "Cytotoxic Profiling in NIH 3T3 Cell Line of Diverse Libraries Using Quantitative High-Throughput Screening; note: nearly all actives have a fitted effect of over 55% in size", "conditions": "NIH 3T3 viability, CellTiter-Glo ATP luminescence, 48-72 h; activity change, negative = cytotoxicity: at 96.7 µM (top of the series); series mostly up to 96.7 µM", "in_short": "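Luminescent ATP readout (CellTiter-Glo, 10 min RT) after 48 or 72 hr compound exposure of NIH 3T3 cells seeded at 400 cells/well in 1536-well format; quantitative HTS.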", "values": [{"smiles": "COc1cccc(O)c1CN1CCCC12Cc1ccccc1CNC2=O", "note": "(stereo not drawn)", "activity change, negative = cytotoxicity": "inactive: -9.5%"}, {"smiles": "O=C1CN(Cc2ccc(-c3cc(F)cc(F)c3)cc2)CCN1c1nccc(Cl)n1", "Potency": "inconclusive: 50.1 µM [inhibitor, partial curve, poor fit]"}, {"smiles": "COC(=O)c1ccc2nc(C[C@@H]3C[C@@H](C(C)C)[C@H](CNS(=O)(=O)c4ccccc4)C=C3C)[nH]c2c1", "Potency": "active: 31.6 µM"}, {"smiles": "O=C1CC(c2ccccc2)N(C(=O)CNS(=O)(=O)c2ccccc2)CCCCCCN1", "note": "(stereo not drawn)", "activity change, negative = cytotoxicity": "inactive: -14.9%"}, {"smiles": "Cc1ccccc1Nc1cnc2ccc(-n3ccnc3)nn12", "Potency": "inconclusive: 35.5 µM [inhibitor, partial curve, poor fit]"}, {"smiles": "Cc1nnc2ccc(N3CCC(NC(=O)NC(C)C)C3)nn12", "note": "(stereo not drawn)", "activity change, negative = cytotoxicity": "inactive: -5.93% [at 138 µM]"}, {"smiles": "COc1ccc(-c2noc([C@@H]3CCCN3C(=O)c3ccc(F)c(Cl)c3)n2)cc1OC", "Potency": "inconclusive: 44.7 µM [inhibitor, partial curve, poor fit]"}, {"smiles": "CC(C)N1CC2CCC(C1)N2Cc1cccc(-c2cccs2)c1", "Potency": "inconclusive: 44.7 µM [inhibitor, partial curve, poor fit]"}, {"smiles": "CC(C)n1c(CNC(=O)Cn2nc3c(cc2=O)CCCCC3)nc2ccccc21", "Potency": "inconclusive: 44.7 µM [inhibitor, partial curve, poor fit]"}, {"smiles": "Cc1nn(CCC#N)c(C)c1[C@@H]1C=C[C@@H](NS(=O)(=O)c2ccccc2)C1", "Potency": "active: 25.1 µM"}, {"smiles": "Cc1nn(-c2ccccc2)c2c1C(C)N(C1CN(C(=O)c3cccc(Cl)c3)C1)C2=O", "note": "(stereo not drawn)", "Potency": "inconclusive: 44.7 µM [inhibitor, partial curve, poor fit]"}, {"smiles": "CC(C)(N)C(=O)NC1CCCN(C2Cc3ccccc3C2)C1", "note": "(stereo not drawn)", "activity change, negative = cytotoxicity": "inactive: -16.7%"}, {"smiles": "CN(C)c1ccc(CN2CCn3c(nnc3C3CCNCC3)C2)cc1", "outcome": "inactive"}, {"smiles": "Cc1nc(-c2cccc(Cl)c2)n(CC(=O)Nc2ccc(C(F)(F)F)cc2)c(=O)c1CCO", "Potency": "active: 15.8 µM"}, {"smiles": "COc1ccc(-c2cc(N3CCN(C(=O)c4ccc(F)cc4F)CC3)n[nH]2)cc1", "Potency": "inconclusive: 17.8 µM [inhibitor, partial curve]"}, {"smiles": "COc1ccccc1-c1cccc(C(=O)N2CCC[C@H]2C(=O)NCCc2ccc(Cl)cc2)c1", "Potency": "inconclusive: 44.7 µM [inhibitor, partial curve, poor fit]"}, {"smiles": "CC(C)c1nc2c(c(-c3ccc(O)cc3)n1)CN(Cc1ccc(C(F)(F)F)cc1)CC2", "Potency": "inconclusive: 44.7 µM [inhibitor, partial curve, poor fit]"}, {"smiles": "COc1ccc(CN2CCC3(Cc4ccccc4CNC3=O)C2)cn1", "note": "(stereo not drawn)", "activity change, negative = cytotoxicity": "inactive: -10.9%"}, {"smiles": "Cc1noc(C)c1S(=O)(=O)N1[C@@H]2CC[C@H]1CC(NC(=O)c1ccc(F)cc1)C2", "note": "(stereo partly drawn)", "Potency": "inconclusive: 50.1 µM [inhibitor, partial curve, poor fit]"}, {"smiles": "CC(C(=O)NCc1ccccc1)N1C(=O)COc2ccc(C(=O)COc3ccc(Cl)cc3)cc21", "note": "(stereo not drawn)", "Potency": "inconclusive: 70.8 µM [inhibitor, single point]"}, {"smiles": "COc1ccc(CN2C=C(C(=O)OCc3c(C)noc3C)C(C)=NS2(=O)=O)cc1", "Potency": "inconclusive: 50.1 µM [inhibitor, partial curve, poor fit]"}, {"smiles": "COc1ccc(OCc2nc(C)c(CCO)c(=O)n2CC(=O)Nc2ccc(Cl)cc2F)cc1", "Potency": "inconclusive: 70.8 µM [inhibitor, single point]"}, {"smiles": "O=C1CCNc2ccccc2CN1C1CCCC1", "Potency": "inconclusive: 79.4 µM [inhibitor, partial curve, poor fit]"}, {"smiles": "Cn1ncc2c(C(=O)C3CCN(Cc4ccccc4)CC3)cc(-c3ccccc3C(F)(F)F)nc21", "Potency": "active: 31.6 µM"}, {"smiles": "O=C(Nc1ccccc1)N1CCCC(C(=O)N2CCC(c3nc4ccncc4[nH]3)C2)C1", "note": "(stereo not drawn)", "activity change, negative = cytotoxicity": "inactive: -25.3%"}, {"smiles": "Cc1nc(CN(C)Cc2nc(-c3cccc(Cl)c3)oc2C)no1", "Potency": "inconclusive: 89.1 µM [inhibitor, partial curve, poor fit]"}, {"smiles": "COc1ccccc1Nc1ccnc(N2CCC(C(=O)NCc3cccc(F)c3)CC2)n1", "Potency": "inconclusive: 50.1 µM [inhibitor, partial curve, poor fit]"}, {"smiles": "O=c1cc(CN2CCCC(c3nccn3Cc3ccccc3)C2)[nH]c(=O)[nH]1", "note": "(stereo not drawn)", "Potency": "inconclusive: 56.2 µM [inhibitor, partial curve, poor fit]"}, {"smiles": "O=C(CSc1ccccn1)N1CCn2nc(C(O)c3ccccc3)cc2C1", "note": "(stereo not drawn)", "activity change, negative = cytotoxicity": "inactive: -9.91%"}, {"smiles": "O=C(c1ccccc1F)N1CC(N(Cc2cccnc2)C(=O)Nc2ccccc2)C1", "activity change, negative = cytotoxicity": "inactive: 0.646%"}, {"smiles": "CNC(=O)CCn1ncc2cc(OCc3ccccc3-c3ccsc3)ccc21", "Potency": "inconclusive: 56.2 µM [inhibitor, partial curve, poor fit]"}, {"smiles": "COc1cccc(C(=O)N2CCC(CCOc3ccc(F)cc3)C2)c1", "note": "(stereo not drawn)", "Potency": "inconclusive: 44.7 µM [inhibitor, partial curve, poor fit]"}, {"smiles": "COc1cccc(NC(=O)c2ccc3c(c2)N(C)C2CCCN2C3=O)c1", "note": "(stereo not drawn)", "activity change, negative = cytotoxicity": "inactive: -3.24%"}, {"smiles": "O=C([C@H]1CCCN1C(=O)Nc1ccc(Cl)cc1)N1CCC(N2CCOC2=O)CC1", "activity change, negative = cytotoxicity": "inactive: 3.75%"}, {"smiles": "COc1ccc(C(=O)Nc2ccc(-c3noc([C@@H]4CCCN4Cc4cnc5ccccc5c4)n3)cn2)cc1", "Potency": "active: 28.2 µM"}, {"smiles": "CCc1ccc(CN(C)C(C(=O)O)c2c(OC)cccc2OC)nc1", "note": "(stereo not drawn)", "Potency": "inconclusive: 56.2 µM [inhibitor, partial curve, poor fit]"}, {"smiles": "COc1cc(CNCc2nnn3c2CN(Cc2ccccc2C#N)C(=O)CC3)cc(OC)c1", "activity change, negative = cytotoxicity": "inactive: 1.42%"}, {"smiles": "CCCOc1ccc(CN2CCn3nnc(CCC(=O)N4CCCC4)c3C2)cc1", "activity change, negative = cytotoxicity": "inactive: -30.6%"}, {"smiles": "CCCS(=O)(=O)NCC1Cn2cccc2C(=O)N1Cc1ccccc1", "note": "(stereo not drawn)", "Potency": "inconclusive: 50.1 µM [inhibitor, partial curve, poor fit]"}, {"smiles": "CN1C[C@@H](NC(=O)c2ccc(F)cc2)C[C@H]1c1nc(-c2ccccc2)no1", "activity change, negative = cytotoxicity": "inactive: -13.4% [at 174 µM]"}, {"smiles": "Cc1cccc(O[C@H]2COCCN(Cc3ccccn3)C2)n1", "activity change, negative = cytotoxicity": "inactive: -10.3% [at 138 µM]"}, {"smiles": "O=C(Nc1ccccc1)c1cc2n(n1)CC(c1ccc(Br)cc1)OC2", "note": "(stereo not drawn)", "Potency": "inconclusive: 50.1 µM [inhibitor, partial curve, poor fit]"}, {"smiles": "C[S+](=O)([O-])Nc1cccc(Nc2cnc3ccc(-c4ccc(F)cc4)nn23)c1", "Potency": "inconclusive: 50.1 µM [inhibitor, partial curve, poor fit]"}]}]}
